Measurements as given in PubChem BioAssay (NCATS).
“And” between values parts separate entries of the source, which are not always exact repeats. Equal entries are not always repeated. This list was built around the results that the source calls inconclusive (neither active nor inactive); the mix of calls is not that of the screen. Where a call stands in place of a potency, no number is given. For some of these results: A potency beside an inconclusive call is a rough fit, not a confirmed value. The source made the active and inactive calls. Unless noted, calls come from the whole dose curve; as a rule, active = well fitted curve in the direction sought with a large enough effect; inconclusive = small, poorly fitted or top-dose-only effect, or another doubt; inactive = no such curve, though single readings can be large; an effect the other way counts as inactive or inconclusive.

Legend:
[1] = NFAT Signaling Pathway (AID 444; active = well fitted curve in either direction with a large enough effect, not every such curve was filed as active; inconclusive = small, poorly fitted or top-dose-only effect, or another doubt;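 note: carbachol stimulus at about its EC50 of 1 µM final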); conditions: Jurkat NFAT-bla M1, carbachol, beta-lactamase ratio, 5 h
Method in brief: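 Jurkat cells with NFAT-driven β-lactamase reporter and co-expressed M1 receptor, stimulated with carbachol (final 1 uM, ~EC50), compound titration, 5 h at 37 °C. CCF4 loaded 1 h at RT; 460/530 nm ratio gave %activity and AC50.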

[2] = qHTS of pediatric cancer cell lines to identify multiple opportunities for drug repurposing: Primary screen for SJ-GBM2 cells (AID 1347091)
Method in brief: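 Viability measured as metabolically active cells via CellTiter-Glo luminescence following 48 hours of compound exposure, 11-point dilutions in confirmatory testing. 500-1,000 cells/well plated 5 hours before dosing; controls were DMSO and 2.3 µM bortezomib.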

[3] = qHTS of pediatric cancer cell lines to identify multiple opportunities for drug repurposing: Primary screen for SK-N-SH cells (AID 1347098); note: nearly all actives have a fitted effect of over 65% in size; note: potency is the fitted concentration of half-maximal effect;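 for activity change, negative = cytotoxic: DMSO served as neutral control and bortezomib at 2.3 µM as positive control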
Method in brief: (§1)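 Cells (500-1,000/well) rested 5 h, then received compounds for 48 h; metabolically active cells were measured by CellTiter-Glo luminescence. Final concentrations spanned up to 46 µM (MIPE, 11-point) or 0.59 nM-46 µM (NPC, 8-point) in primary screens, 11-point in follow-ups.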

[4] = Primary qHTS for small molecule stabilizers of the endoplasmic reticulum resident proteome: Secreted ER Calcium Modulated Protein (SERCaMP) assay (AID 1508630); conditions: SH-SY5Y GLuc-SERCaMP (Gaussia luciferase released on ER calcium loss) secretion, thapsigargin, luminescence; activity change, negative = inhibition: at 38.4 µM (top of the series) unless noted; note: potency is the fitted concentration of half-maximal effect
Method in brief: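 The SH-SY5Y reporter protocol was run at 3 concentrations up to 38.3 uM (primary) or 11 concentrations (follow-up): 16 h compound, 100 nM thapsigargin for 4 h, then extracellular luciferase luminescence.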

[5] = target: Phospholipid hydroperoxide glutathione peroxidase GPX4 (Homo sapiens) (UniProt P36969); assay: Primary qHTS Assay for Inhibitors of Recombinant Selenoprotein Glutathione Peroxidase 4 (GPX4) (AID 1845192); conditions: activity change, negative = inhibition: at 50 µM (top of the series) unless noted; note: nearly all actives have a fitted effect of over 65% in size; note: potency is the fitted concentration of half-maximal effect
Method in brief: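 Steps: GPX4 plus compound, 30 min RT; add GR/GSH/NADPH master mix; start with cumene hydroperoxide; read 340/450 nm fluorescence at 0 and 15 min. Finals were 200 nM GPX4, 1 mM GSH, 0.5 mM CHP, 0.5 mM NADPH, 100 nM GR.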

GB4 = assay: qHTS profiling for inhibitors of Plasmodium falciparum proliferation (AID 504749); note: nearly all actives have a fitted effect of over 60% in size; note: potency is the fitted concentration of half-maximal effect; conditions: P. falciparum in erythrocytes, SYBR Green DNA, 72 h; series mostly up to 28.7 µM
Method in brief: (§2)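 Each compound contacts P. falciparum-infected red blood cells for 72 h at 37 C; lysis buffer (Tris, EDTA, saponin, Triton X, SYBR Green I) is added and fluorescence measured next morning; values normalized to controls.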

W2 = assay: as above; conditions: P. falciparum in erythrocytes, SYBR Green DNA, 72 h; activity, negative = inhibition: at 28.7 µM (top of the series)
Method in brief: as §2

[6] = Primary redox qHTS assay for identification of artifact compounds. (AID 1845223); note: potency is the fitted concentration of half-maximal effect
Method in brief: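 Redox-cycling detection via DTT (250 uM final) oxidation coupled to Amplex Red (25 uM)/HRP (250 mU/mL) in HBSS. 15 min preincubation plus 30 min after DTT, room temperature. Ex/Em 525/598 nm; 4-parameter Hill fit against DMSO and 10 uM DA3003.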

[7] = target: Cytochrome P450 2C9 (Homo sapiens) (UniProt P11712); assay: Cytochrome P450 family 2 subfamily C member 9 (CYP2C9) small molecule antagonists: luciferase biochemical (cell-free) qHTS assay (AID 1645842; active = well fitted curve in the direction sought with a large enough effect in the repeat runs; inconclusive = weak or mixed curves; inactive = no such curve, though single readings can be large; an effect the other way counts as inactive or inconclusive; note: nearly all actives have a fitted effect of over 55% in size; note: potency is the fitted concentration of half-maximal effect)
Method in brief: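 P450-Glo CYP2C9 system: proluciferin substrate with enzyme in mix containing 0.4% BSA, 10 min at room temperature, then NADPH regeneration solution added and incubated 1 h at 37C. Detection reagent stopped reaction; luminescence read after 20 min as RLU.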

[8] = qHTS of pediatric cancer cell lines to identify multiple opportunities for drug repurposing: Primary screen for BT-12 cells (AID 1347101); note: nearly all actives have a fitted effect of over 25% in size
Method in brief: as §1

[9] = qHTS of pediatric cancer cell lines to identify multiple opportunities for drug repurposing: Primary screen for OHS-50 cells (AID 1347103); conditions: OHS-50 osteosarcoma viability, CellTiter-Glo luminescence, 48 h; activity change, negative = cytotoxic: at 57.3 µM (top of the series); note: nearly all actives have a fitted effect of over 40% in size
Method in brief: as §1

[10] = A High-Content qHTS Against Drug Library for the Identification of Small Molecules that Inhibit DYT1 Early Onset Primary Dystonia-Associated Cell Pathology (AID 1645839; calls by dose curve)
Method in brief: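 Cells were seeded and left for 24 h, then dosed with compound alongside tetracycline induction of mutant EGFP-TorsinA. They were incubated for 48 h, fixed in 4% paraformaldehyde, permeabilized and imaged for mislocalization (%pathology) and cell count.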

[11] = qHTS of pediatric cancer cell lines to identify multiple opportunities for drug repurposing: Primary screen for A673 cells (AID 1347092); conditions: A673 Ewing sarcoma viability, CellTiter-Glo ATP luminescence, 48 h; activity change, negative = cytotoxic: at 46 µM (top of the series); note: nearly all actives have a fitted effect of over 45% in size
Method in brief: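 A673 cells (500-1,000 cells/well) were treated 48 hours at 37 degrees C with compounds at 11-point (0.78 nM to 46 µM) or 8-point (0.59 nM to 46 µM) dilutions. Viability read by CellTiter-Glo luminescence; concentration-response curves fitted.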

[12] = qHTS of pediatric cancer cell lines to identify multiple opportunities for drug repurposing: Primary screen for Saos-2 cells (AID 1347097); conditions: Saos-2 viability, CellTiter-Glo ATP luminescence, 48 h; activity change, negative = cytotoxic: at 46 µM (top of the series); note: nearly all actives have a fitted effect of over 40% in size; note: potency is the fitted concentration of half-maximal effect
Method in brief: (§3)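 ATP-based luminescence (CellTiter-Glo) quantifies viability after a 48-hour exposure. Compounds are dosed across 8 or 11 final concentrations; DMSO and 2.3 µM bortezomib serve as controls.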

[13] = qHTS of pediatric cancer cell lines to identify multiple opportunities for drug repurposing: Primary screen for Rh41 cells (AID 1347108);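 note: luminescence drop marks cytotoxic hits; nearly all actives have a fitted effect of over 70% in size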
Method in brief: as §3
Tags give direction and shape of the fitted curve.

UniProt P36969, sequence (P36969 whole entry, looked up): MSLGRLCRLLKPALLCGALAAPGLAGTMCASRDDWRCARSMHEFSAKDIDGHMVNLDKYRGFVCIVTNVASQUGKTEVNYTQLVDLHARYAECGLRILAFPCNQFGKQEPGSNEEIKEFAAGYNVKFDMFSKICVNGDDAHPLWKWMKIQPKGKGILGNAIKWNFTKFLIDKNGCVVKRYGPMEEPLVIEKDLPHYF
UniProt P11712, sequence (P11712 whole entry, looked up): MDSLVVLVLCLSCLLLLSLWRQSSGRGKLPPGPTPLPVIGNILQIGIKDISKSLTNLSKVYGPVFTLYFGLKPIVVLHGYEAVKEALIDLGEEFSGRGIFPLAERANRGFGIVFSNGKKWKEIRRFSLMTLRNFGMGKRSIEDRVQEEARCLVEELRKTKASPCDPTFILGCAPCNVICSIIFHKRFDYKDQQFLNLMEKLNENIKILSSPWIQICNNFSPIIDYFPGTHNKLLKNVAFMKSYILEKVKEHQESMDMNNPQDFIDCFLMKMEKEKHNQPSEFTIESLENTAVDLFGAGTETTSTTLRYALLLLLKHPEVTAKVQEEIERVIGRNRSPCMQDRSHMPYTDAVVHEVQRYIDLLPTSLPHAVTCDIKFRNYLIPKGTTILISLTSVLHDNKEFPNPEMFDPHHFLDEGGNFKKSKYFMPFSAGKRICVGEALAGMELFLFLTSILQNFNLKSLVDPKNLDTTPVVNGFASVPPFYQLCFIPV

Structure (SMILES): O=C(O)CP(=O)(O)O
- activity change, negative = inhibition ([1]; at 7.69 µM (top of the series)): inactive: -1.52%
- activity change, negative = inhibition ([1]; at 38 µM (top of the series)): inactive: 3.66%
- Potency [2]: inactive
- Potency [3]: inconclusive: 2.73 µM [cytotoxic, partial curve, poor fit]
- Potency [4]: inconclusive: 5.01 µM [inhibitor, full curve, poor fit] and inconclusive: 10 µM [inhibitor, partial curve, poor fit]
- Potency [5]: inactive
- Potency (GB4): inactive
- Potency (W2): inconclusive: 0.0301 µM [inhibitor, full curve, poor fit]

Structure (SMILES): OC/C=C/C=C/[C@H]1Cc2cc(O)cc(O)c2O1
- Potency [6]: active: 18.9 µM

Structure (SMILES): C=CC(C)(CCC=C(C)C)O[C@@H]1O[C@H](CO)[C@@H](O)[C@H](O)[C@H]1O (some centres not stated)
- Potency [6]: inconclusive: 26.1 µM [activator, partial curve, poor fit]

Structure (SMILES): C[S+](CC[C@H](N)C(=O)[O-])C[C@H]1O[C@@H](n2cnc3c(N)ncnc32)[C@H](O)[C@@H]1O (some centres not stated)
- Potency [5]: inactive

Structure (SMILES): O=C(O)Cc1ccc2oc(-c3ccc(NC(=O)/C=C/c4ccc(Br)cc4)c(F)c3)nc2c1
- Potency [7]: inconclusive: 23.9 µM [inhibitor, partial curve]
- Potency [5]: inactive

Structure (SMILES): CC1CCC2C(C(=O)O)=COC(O[C@@H]3O[C@H](CO)[C@@H](O)[C@H](O)[C@H]3O)C12 (some centres not stated)
- Potency [6]: inactive

Structure (SMILES): O=C(O)c1ccccc1OP(=O)(O)O
- Potency [8]: inactive
- Potency [9]: inactive
- Potency [4]: inconclusive: 10 µM [inhibitor, partial curve, poor fit]
- Potency [10]: inactive
- Potency (GB4): inactive
- Potency (W2): inactive

Structure (SMILES): Cc1onc(-c2c(Cl)cccc2Cl)c1C(=O)N[C@@H]1C(=O)N2[C@@H]1SC(C)(C)[C@@H]2C(=O)O
- Potency [5]: inconclusive: 20 µM [inhibitor, partial curve, poor fit]
- Potency [6]: inconclusive: 18.9 µM [activator, partial curve]

Structure (SMILES): Cc1onc(-c2c(F)cccc2Cl)c1C(=O)N[C@@H]1C(=O)N2[C@@H]1SC(C)(C)[C@@H]2C(=O)O
- Potency [6]: inconclusive: 29.9 µM [activator, single point]

Structure (SMILES): CC(=O)O[C@@H]1C=C2[C@H](CC[C@@]3(C)[C@@]2(O)CC[C@H]2Cc4c([nH]c5ccccc45)[C@@]23C)O[C@@H]1C(C)(C)O
- Potency [6]: inconclusive: 13 µM [activator, partial curve, poor fit]

Structure (SMILES): FC(F)(F)c1nnc2c(Sc3ccccc3)nc3ccc(Cl)cc3n12
- Potency [7]: inconclusive: 2.39 µM [inhibitor, full curve]

Structure (SMILES): CC(C(O)/C=C/C(C)(C)O)C1CCC2(C)C3C(=O)C=C4C(CCC(O)C4(C)C)C3(C)CCC12C (configuration not stated)
- Potency [6]: inactive

Structure (SMILES): COc1ccc(Cl)c(Nc2nc3ccccc3nc2NS(=O)(=O)c2cccc(NC(=O)C(C)(C)N)c2)c1
- Potency [5]: inconclusive: 9.04 µM [inhibitor, partial curve]

Structure (SMILES): C[C@@H]1O[C@@H](O[C@H]2[C@H](O[C@H]3CC[C@@]4(C)C(CC[C@]5(C)C4CC=C4[C@@H]6CC(C)(C)CC[C@]6(C(=O)O[C@@H]6OC[C@H](O)[C@H](O)[C@H]6O[C@@H]6O[C@@H](C)[C@H](O[C@@H]7O[C@H](CO)[C@@H](O)[C@H](O)[C@H]7O)[C@H](O)[C@H]6O)[C@H](O)C[C@]45C)C3(C)C)O[C@H](CO)[C@@H](O[C@@H]3OC[C@@H](O)[C@H](O)[C@H]3O)[C@@H]2O)[C@H](O)[C@H](O)[C@H]1O (some centres not stated)
- Potency [6]: inconclusive: 3.57 µM [activator, partial curve, poor fit]

Structure (SMILES): C[C@]12C[C@@H](O)[C@@H]3C[C@@]1(O[C@@H]1O[C@H](CO)[C@@H](O)[C@H](O)[C@H]1O)[C@]3(COC(=O)c1ccccc1)C(=O)O2
- Potency [6]: inactive

Structure (SMILES): COc1cc(Br)c(S(=O)(=O)Nc2ccc(C(F)(F)F)c(O[C@@H]3CCN(C)C3)c2)cc1OC
- Potency [6]: inactive

Structure (SMILES): CCC(C)C(=O)O[C@H]1CCC=C2C=C[C@H](C)[C@H](CC[C@@H](O)C[C@@H](O)CC(=O)O)[C@H]21 (some centres not stated)
- Potency [5]: inactive
- Potency [6]: inconclusive: 9.22 µM [activator, single point]

Structure (SMILES): COC(=O)C1C(O)CCC2CN3CCc4c([nH]c5ccccc45)C3CC21 (configuration not stated)
- Potency [5]: inactive
- Potency [6]: inconclusive: 14.7 µM [activator, single point]

Structure (SMILES): CC(=O)O[C@H]1CC[C@@]2(C)C(=CC[C@@H]3[C@@H]2CC[C@]2(C)C(C(C)=O)=CC[C@@H]32)C1
- Potency [11]: inactive

Structure (SMILES): COC(=O)C(CC1CCCC1)c1ccc(S(C)(=O)=O)cc1 (configuration not stated)
- Potency [5]: inactive

Structure (SMILES): C/C=C1\[C@H](O[C@@H]2O[C@H](CO)[C@@H](O)[C@H](O)[C@H]2O)OC=C2C(=O)OCCc3ccc(O)c(c3)Oc3ccc(cc3)CCOC(=O)C[C@H]21
- Potency [6]: inconclusive: 11.2 µM [activator, single point]

Structure (SMILES): CC(=O)OCC(COC(C)=O)OC(C)=O
- Potency [12]: inactive
- Potency [3]: inactive
- Potency [13]: inactive
- Potency (GB4): inactive
- Potency (W2): inactive

Structure (SMILES): Cn1c(=O)cc(N2CCCC(N)C2)n(Cc2cc(F)ccc2C#N)c1=O (configuration not stated)
- Potency [6]: inactive

Structure (SMILES): C/C(=C\CCC(C)CCO)C(=O)O[C@@H]1[C@@H](O)[C@H](OC2OC=C(C(=O)O)C3CCC(C)(O)C23)O[C@H](CO)[C@H]1O (some centres not stated)
- Potency [6]: inactive

Structure (SMILES): OC[C@H]1O[C@@H]2O[C@H]3[C@H](O)[C@@H](O)[C@@H](O[C@H]4[C@H](O)[C@@H](O)[C@@H](O[C@H]5[C@H](O)[C@@H](O)[C@@H](O[C@H]6[C@H](O)[C@@H](O)[C@@H](O[C@H]7[C@H](O)[C@@H](O)[C@@H](O[C@H]8[C@H](O)[C@@H](O)[C@@H](O[C@H]1[C@H](O)[C@H]2O)O[C@@H]8CO)O[C@@H]7CO)O[C@@H]6CO)O[C@@H]5CO)O[C@@H]4CO)O[C@@H]3CO
- Potency [2]: inactive
- Potency [11]: inactive
- Potency [12]: inconclusive: 29.9 µM [cytotoxic, single point]
- Potency [13]: inactive
- Potency [4]: inactive
- Potency [7]: inactive

Structure (SMILES): O=C(c1ccc(/C=C/c2n[nH]c3ccccc23)cc1)N1CCNCC1
- Potency [7]: inconclusive: 21.3 µM [inhibitor, single point]
- Potency [5]: inconclusive: 12.8 µM [inhibitor, partial curve] and inconclusive: 20.2 µM [inhibitor, single point]
